# Results: paper PMC4336329 (PLoS ONE, 2015)
# In all, about 310,000 compounds went through this assay and about 14,000 (4.5%) showed an effect of 50% or more. Effects have a minus sign here. The list shows a part of the results.
# Molecular target: human ether-à-go-go-related gene (hERG) potassium channel (human, UniProt Q12809)
# Experiment: primary screen, population patch clamp on CHO cells stably expressing hERG
# 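Note: peak tail current of the secondary pulse compared with the same well before compound.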
# Chain of human ether-à-go-go-related gene (hERG) potassium channel (Q12809 whole entry, looked up): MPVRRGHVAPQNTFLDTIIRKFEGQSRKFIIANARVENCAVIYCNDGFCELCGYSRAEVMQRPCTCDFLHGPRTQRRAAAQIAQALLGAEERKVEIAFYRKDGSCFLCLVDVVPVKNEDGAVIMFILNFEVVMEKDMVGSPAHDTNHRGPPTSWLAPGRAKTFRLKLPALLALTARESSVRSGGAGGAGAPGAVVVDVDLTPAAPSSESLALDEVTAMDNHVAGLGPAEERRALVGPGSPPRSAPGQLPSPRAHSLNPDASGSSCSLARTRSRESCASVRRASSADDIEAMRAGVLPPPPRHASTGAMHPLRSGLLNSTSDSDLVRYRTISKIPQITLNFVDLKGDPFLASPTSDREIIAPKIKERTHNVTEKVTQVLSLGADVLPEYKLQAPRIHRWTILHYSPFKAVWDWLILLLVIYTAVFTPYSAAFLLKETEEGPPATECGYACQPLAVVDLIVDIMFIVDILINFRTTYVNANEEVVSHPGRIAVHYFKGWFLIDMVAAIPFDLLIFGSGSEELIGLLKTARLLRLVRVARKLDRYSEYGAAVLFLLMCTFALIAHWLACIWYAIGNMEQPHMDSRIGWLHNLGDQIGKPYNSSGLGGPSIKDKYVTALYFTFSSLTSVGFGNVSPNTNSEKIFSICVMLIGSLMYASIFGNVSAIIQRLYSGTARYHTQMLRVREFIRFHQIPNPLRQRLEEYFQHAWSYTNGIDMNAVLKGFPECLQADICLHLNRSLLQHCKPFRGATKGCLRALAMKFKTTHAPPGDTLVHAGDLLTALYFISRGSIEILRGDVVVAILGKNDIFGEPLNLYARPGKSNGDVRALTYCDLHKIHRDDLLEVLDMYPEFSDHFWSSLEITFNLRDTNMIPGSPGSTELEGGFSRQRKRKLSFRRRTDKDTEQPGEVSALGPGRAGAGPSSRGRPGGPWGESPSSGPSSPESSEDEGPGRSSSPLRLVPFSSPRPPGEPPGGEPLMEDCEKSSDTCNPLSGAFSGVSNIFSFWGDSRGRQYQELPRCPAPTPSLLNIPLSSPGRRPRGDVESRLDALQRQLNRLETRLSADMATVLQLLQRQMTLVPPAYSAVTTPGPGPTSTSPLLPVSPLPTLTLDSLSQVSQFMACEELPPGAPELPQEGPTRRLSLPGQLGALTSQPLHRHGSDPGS
row,Structure (SMILES),"hERG current change (%, negative = inhibition) at 10uM [%]"
1,CC(CN(C)Cc1ccccc1)OC(=O)c1ccccc1F.Cl (centres unmarked),-2.3
2,COc1ccc(-c2nsc(SCC(=O)Nc3ccc4c(c3)OCO4)n2)cc1,20
3,S=C(NCCSCc1ccc(Cl)cc1Cl)Nc1ccccc1,4.75
4,COc1ccccc1-c1ccc(=O)n(CC(=O)NCc2cccs2)n1,-0.87
5,CCN(CC)S(=O)(=O)c1ccc(C(=O)OCn2nnc3ccccc3c2=O)cc1,-6.69
6,CCOC(=O)c1cnc(SC)nc1N,-4.94
7,CC(C)n1c(CCC(=O)O)ccc1-c1ccccc1,10.1
8,COc1cccc(/C(O)=C2/C(=O)C(=O)N(CCN(C)C)C2c2ccc(Br)cc2)c1 (centres unmarked),11.3
9,O=C1COc2ccc(C(=O)CSc3nnc(Cc4cccs4)n3-c3ccccc3)cc2N1,-38.3
10,Cc1nn(C)cc1CN1CCCC(C(=O)c2ccc(-c3ccccc3)cc2)C1 (centres unmarked),-45.4
11,Cc1cccc(NC(=O)OC2CN3CCC2CC3)c1 (centres unmarked),-9.77
12,CCOc1nc(NC(=O)NS(=O)(=O)c2cccc(Cl)c2)nc(-c2ccccc2)n1,-3.13
13,COC(=O)CSc1nc(C)c(C(C)=O)cc1C#N,-8.09
14,O=C(CCCl)Nc1nnc(SCC(=O)NC2CCCC2)s1,3.7
15,COc1cc(OC)cc(-c2nc3ccccc3c(=O)n2OC(=O)c2ccccc2C)c1,10.6
16,Brc1cc2c(cc1CSc1ncccn1)OCO2,20.1
17,Nc1ccc(Oc2ccc(Br)cc2)cc1,-4.61
18,CCc1nn(CCCC(=O)NCc2ccc(C)cc2)c(=O)c2cc3occc3n12,-8.1
19,O=C1c2oc3ccccc3c(=O)c2C(c2cccc(Br)c2)N1Cc1ccco1 (centres unmarked),-8.64

row,Structure (SMILES),"hERG current change (%, negative = inhibition) at 10uM [%]"
1,Cc1ccc(C)c(OCC(=O)Nc2ccc(S(=O)(=O)Nc3ccccn3)cc2)c1,10.8
2,COc1ccc(S(=O)(=O)NC(C)C(=O)N2CCCC2)cc1Cl (centres unmarked),5.12
3,CC(NC(c1ccccc1)c1ccccc1)C(=O)N1CCCc2ccccc21 (centres unmarked),-0.438
4,O=C(CN1CCN(c2cccc(Cl)n2)CC1)N1CC(O)CO1 (centres unmarked),19.6
5,Cc1ccccc1N1C(=O)C(Cc2ccc(F)cc2)S/C1=C(\C#N)C(N)=O (centres unmarked),0.855
6,Fc1cccc(Cl)c1Cc1noc(/C=C/c2ccccc2)n1,12.6
7,CCC(CC)N1CCN(Cc2nc3ccccc3c(=O)n2-c2ccc(F)cc2)CC1,-45.9
8,O=C(N1CCCCC1)C12CC3CC(CC(C3)C1)C2,5.82
9,Cc1cn(C2CCC(CO)O2)c(=O)[nH]c1=O (centres unmarked),18.9
10,CC1CCCCC1NC(=O)c1ccc2c(c1)[nH]c(=O)n2C1CCCC1 (centres unmarked),-21.6
11,CCc1nc2ccc(C(=O)N3CCN(c4ccccc4)CC3)cc2nc1CC,-5.04
12,CCc1ccc(NC(=S)N(Cc2ccc(Cl)cc2)Cc2ccc(C(=O)O)cc2)cc1,12.7
13,COc1cc2c(cc1OC)C(C)N(C(=O)Nc1cc(C)cc(C)c1)CC2 (centres unmarked),4.95
14,Cc1nc(-c2ccc(S(=O)(=O)N3CCN(c4cccc(C)c4C)CC3)cc2)co1,-3.54
15,O=C(CCCc1ccccc1)NCc1ccccc1Cl,-7.08
16,O=C1C=C(O)c2cccc3cccc1c23,28.3
17,Cc1cc(C)cc(Nc2ncnc3nc[nH]c23)c1,0.215
18,CN1CCN(c2ccccc2NC(=O)c2ccc(-c3ccccc3[N+](=O)[O-])o2)CC1,-67.9
19,O=C(Nc1ccccc1C(=O)NCc1ccccc1)c1ccccc1Br,-1.98

row,Structure (SMILES),"hERG current change (%, negative = inhibition) at 10uM [%]"
1,Cn1c(=O)c2cc(S(=O)(=O)NCCC(=O)NCCc3ccc(Cl)cc3)ccc2n(C)c1=O,-33.5
2,COc1ccc(OC)c(C(C(=O)NCc2ccco2)N(C(=O)Cn2nnc3ccccc32)C(C)C)c1 (centres unmarked),-27.6
3,COc1cccc(NC(=O)C2CC2(c2cccc(OC)c2)c2cccc(OC)c2)c1 (centres unmarked),4.92
4,Cc1ccc(NC(=O)c2cccc(S(=O)(=O)N3CCc4ccccc4C3)c2)nc1,-38.5
5,Cc1ccccc1NC(=O)CN1C(=O)S/C(=C\c2cccn2-c2cccc(C(=O)O)c2)C1=O,15.8
6,COc1ccccc1-n1cnnc1SCC(=O)Nc1ccccc1,7.5
7,Cc1cc(C)c(S(=O)(=O)Nc2ccc3c4c(cccc24)CC3)c(C)c1,7.51
8,c1nc(NCC2(N3CCOCC3)CCCCC2)c2ccsc2n1,-73.3
9,CCOC(=O)C(C(=O)NCCCN1CCOCC1)C1CCCCC1 (centres unmarked),9.9
10,CCc1ccc(C(=O)C(C)OC(=O)Cn2cnc3c2c(=O)n(C)c(=O)n3C)cc1 (centres unmarked),-1.98
11,Cc1c(C(=O)OCC(=O)Nc2c(C)n(C)n(-c3ccccc3)c2=O)cccc1[N+](=O)[O-],-6.66
12,O.O=C(/C=C/c1ccc(O)c(O)c1)O[C@@H]1C[C@](O)(C(=O)O)C[C@@H](O)[C@H]1O,17.9
13,CN1CCN(C(=O)Cn2c(C(F)(F)F)nc3ccccc32)CC1,14.7
14,O=C(O)CCCC(=O)NNc1ncnc2ccccc12,15.3
15,COc1ccc(N/C(N)=N/c2nc(CSc3nnc(C)s3)cc(=O)[nH]2)cc1,19.2
16,O=c1c([N+](=O)[O-])cccn1Cc1ccc(F)cc1Cl,2.92
17,O=C(NC1(C(F)(F)F)NC(=O)N(C2CCCCC2)C1=O)c1cccs1 (centres unmarked),-1.98
18,COCCCNC(=O)Cn1cnc2sc(C)c(S(=O)(=O)N3CCN(c4ccccc4OC)CC3)c2c1=O,-0.312
